The list shows a part of the results. These are further read-outs of the screen, such as a control signal, another cell line or another target. No call is given for them. The list favours compounds with an active or inconclusive main result. The note in brackets gives the kind of curve behind each potency; many fits are weak.

Consider 39 compounds from PubChem BioAssay AID1347044 (National Center for Advancing Translational Sciences (NCATS), 2019).
Tags tell the direction and shape of the fitted curve.

The experiment can be described thus: Natriuretic polypeptide receptor (hNpr1) antagonism - Confirmation. Also: nearly all actives have a fitted effect of over 70% in size. The note with it: HEK293 hNpr1 cGMP GloSensor luminescence, ANP-stimulated; measured here: HEK-hNpr1 cytotoxicity, CellTiter-Glo. In a few lines: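 HEK293 cells co-expressing hNpr1 and GloSensor cGMP sensor preloaded 2 h with 2% GloSensor reagent, compounds added 30 min at room temperature, then 0.1 nM hNppA for 20 min; luminescence read before and after agonist. Cytotoxicity counter-screen run.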
One may read the CC50 as the concentration at which the toxic effect on the cells reaches its halfway point. A high value points to better tolerance by the cells. On to `COc1ccc(-n2nc3n(c2=O)CCN(Cc2cccn2C)C3)cc1`, for which the CC50 was 53.9 µM [falling, single point]. As to `Cc1nccc(N2CCC(Oc3cnc4c(ccn4CCN[S+](C)(=O)[O-])c3)CC2)n1`, the CC50 is 28 µM [falling, partial curve]. For `COc1ccc(-c2noc(CC3CCN(C(=O)Cc4ccc(OC)c(Cl)c4)CC3)n2)cc1` the value was 21.7 µM [falling, partial curve]. The figure for `c1ccc(CCCN[C@H]2CO[C@H]3[C@@H]2OC[C@@H]3n2cc(-c3ccccc3)nn2)cc1` is 17.7 µM [falling, partial curve]; for `O=C(NCCc1cccc(Oc2ccccc2)c1)[C@H]1CCC[C@H](O)C1` it is 24.3 µM [falling, partial curve]. For the compound `COc1c[nH]c(CN2CCCC(Nc3ccc(C(C)C)cc3)C2)cc1=O` (centres undefined), the CC50 is 21.7 µM [falling, partial curve]. With `CC(C)c1nncn1C1CCN(S(=O)(=O)c2cccc(Cl)c2)CC1`, the CC50 was 43.2 µM [falling, single point]. For the compound `O=C(Cc1c[nH]c2ncc(-c3ccccc3C(F)(F)F)cc12)NCc1cccnc1`, the CC50 was 31.4 µM [falling, partial curve]. Consider `O=C(Nc1ccc(Cl)cc1)c1nc2c(o1)CCN(Cc1ccc(F)cc1F)CC2`, for which the half-maximal cytotoxic concentration (CC50) is 28 µM [falling, partial curve].

For the compound `CCS(=O)(=O)c1ccc2oc([C@H]3CCN(Cc4cccc(Cl)c4)C3)nc2c1`, the CC50 was 39.6 µM [falling, partial curve].

For `O=C(N[C@H]1CO[C@H]2[C@@H]1OC[C@@H]2n1nnnc1Oc1ccccc1)c1ccc(C(F)(F)F)cc1`, the CC50 was 10.9 µM [falling, partial curve]. `Cc1ccc(C(=O)N2CCN(C(=O)c3nnn4c3COC(c3ccc(F)cc3)C4)CC2)cc1C` (centres undefined): the half-maximal cytotoxic concentration (CC50) is 24.3 µM [falling, partial curve]. As to `O=C(CCC1CCCC1)N1CCC2(CC1)CC(N(C(=O)c1ccccc1)C1CC1)CCO2` (centres undefined), the CC50 was 30.6 µM [falling, single point]. In the case of `CC1=NS(=O)(=O)N(C)C=C1C(=O)OCc1nc(-c2ccc(C)cc2)no1`, the CC50 is 21.7 µM [falling, partial curve].

As to `COc1ccc(C2(C(=O)N3CCC[C@H]3c3nc(-c4ccccc4Cl)no3)CC2)cc1`, the CC50 is 21.7 µM [falling, partial curve]. As for `Cc1ccccc1-c1cnc2[nH]cc(CC(=O)NC3CC3)c2c1`, the CC50 was 31.4 µM [falling, partial curve]. As for `O=C1c2ccccc2CN1C1CCN(Cc2ccc(C(F)(F)F)cc2)CC1`, the CC50 was 21.7 µM [falling, partial curve]. The figure for `O=C(CN1CCCc2nc(-c3ccccc3)ncc2C1=O)NCCc1c[nH]c2ccccc12` is 24.3 µM [falling, partial curve]. As for `O=C(Nc1ccc(Oc2ccccc2)cc1)O[C@@H]1CO[C@H]2[C@@H]1OC[C@@H]2n1nnnc1SC1CCCC1`, the CC50 was 13.7 µM [falling, partial curve]. For the compound `CCc1cnc(C)nc1N1CCOC(c2ccc(Cl)cc2)C1` (centres undefined), the CC50 was 19.3 µM [falling, partial curve]. Take `Clc1ccc(C2CN(c3cc(C4CC4)ncn3)CCO2)cc1` (centres undefined): the CC50 is 21.7 µM [falling, partial curve].

In the case of `O=C(c1nnn2c1COC(c1ccc(Cl)cc1)C2)N1CCN(C(=O)c2c(F)cccc2F)CC1` (centres undefined), the CC50 is 5.44 µM [falling, full curve]. Consider `COc1ccc(-c2cc(C[C@@H]3C[C@H](NCc4ccncc4)C3(C)C)no2)cc1`, for which the CC50 is 25 µM [falling, partial curve]. The figure for `COCc1nc(-c2ccc(OC3CN(S(=O)(=O)c4ccccc4C)C3)cc2)no1` is 21.7 µM [falling, partial curve]; for `COc1ccc2oc(CNC(=O)c3cc(CC(C)C)nn3C)nc2c1` it is 17.2 µM [falling, partial curve]; for `Cc1nn2c(c1-c1ccccc1Oc1ccccc1)N(CC1CC1)CCC2` it is 35.3 µM [falling, partial curve].

For `Cc1ccc(C(=O)N2CCN(c3cc(-c4ccc(Cl)cc4)[nH]n3)CC2)c(C)c1`, the CC50 is 4.32 µM [falling, full curve].

`COc1ccc(C(=O)N2CCN(C(=O)c3nnn4c3COC(c3ccc(Cl)cc3)C4)CC2)c(C)c1` (centres undefined): the half-maximal cytotoxic concentration (CC50) is 17.2 µM [falling, partial curve].

On to `COc1ccc(C2Cn3nnc(C(=O)N4CCN(C(=O)Cc5ccc(F)cc5)CC4)c3CO2)cc1` (centres undefined), for which the CC50 is 21.7 µM [falling, partial curve, poor fit]. For `COc1ccc(N2CCN(c3nc(C(=O)NCc4ccc(C)cc4)cs3)CC2)cc1` the value was 15.3 µM [falling, partial curve]. For `O=C(c1cc(F)ccc1Cl)N1CCC(Cc2nc(-c3ccccc3)no2)CC1`, the CC50 was 17.2 µM [falling, partial curve]. For the compound `COc1ccc(OC)c(S(=O)(=O)N[C@H]2CO[C@H]3[C@@H]2OC[C@H]3OC(=O)Nc2ccc(Oc3ccccc3)cc2)c1`, the CC50 is 17.2 µM [falling, partial curve]. Take `O=C(c1cc(F)ccc1F)N1CCN(c2cc(-c3ccc(Cl)cc3)[nH]n2)CC1`: the CC50 was 24.3 µM [falling, partial curve].

On to `CN(C/C=C/c1ccccc1)c1cc(C2CC(O)C2)nc(N)n1` (centres undefined), for which the 50% cytotoxic concentration (CC50) is 19.3 µM [falling, partial curve]. The figure for `CC(C)Oc1ccc(CNC(=O)c2cc3n(n2)CC(c2ccc(Cl)cc2)OC3)cc1` (centres undefined) is 24.3 µM [falling, partial curve, poor fit]; for `O=C(NC1CCCCCC1)c1csc(N2CCN(c3ccccc3)CC2)n1` it is 43.2 µM [falling, single point]. For `CC(=O)c1ccc(N2CCN(C(=O)c3cc4n(n3)CC(c3ccc(Cl)cc3)OC4)CC2)cc1` (centres undefined), the CC50 was 21.7 µM [falling, partial curve]. Take `COc1ccc(N2CCN(c3nc(C(=O)NCc4ccc(C)c(C)c4)cs3)CC2)cc1`: the half-maximal cytotoxic concentration (CC50) was 15.3 µM [falling, partial curve]. As to `Cc1c(CN(C)c2cc(C3CC(O)C3)nc(N)n2)[nH]c2ccccc12` (centres undefined), the CC50 is 1.09 µM [falling, full curve].
